Data taken from the supplement of paper PMC3334620.
The full ranking holds about 33,000 sequences; the median of “E-score (-0.5 to 0.5)” is about -0.04, and the highest 2% start at about 0.36. Some of the results follow.

These sequences were tested against T1, Hmlalpha2 (UniProt P0CY09) (assay: PBM E-score (8-mer binding enrichment) (E-score (-0.5 to 0.5)); higher = stronger / more preferred TF binding; most listed sequences are background and not binding sites). Settings: protein concentration: 200 nM; construct: GST-full length.
T1 sequence: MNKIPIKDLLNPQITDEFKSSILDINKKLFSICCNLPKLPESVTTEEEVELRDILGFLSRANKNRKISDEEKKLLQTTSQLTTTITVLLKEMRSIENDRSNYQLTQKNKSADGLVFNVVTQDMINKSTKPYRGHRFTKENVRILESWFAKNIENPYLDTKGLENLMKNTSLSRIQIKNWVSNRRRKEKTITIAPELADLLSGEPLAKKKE
Experimental: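 Universal 'all 10-mer' protein binding microarrays (Agilent AMADID 015681) probed with GST-tagged S. cerevisiae TFs (full-length or DBD) made by in vitro transcription/translation (PURExpress), about 100-200 nM. Bound TF was detected with fluorescent anti-GST. Each ungapped 8-mer (which stands for itself and its reverse complement) is scored by the PBM enrichment score (E-score), a modified Wilcoxon-Mann-Whitney statistic from -0.5 to +0.5, computed with the Universal PBM Analysis Suite. Scale: above 0.35 generally sequence-specific binding.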

Row | Sequence | PBM E-score
1 | AATACCAG | 0.0615
2 | AACCGCTG | -0.07
3 | GCATTCTA | 0.0937
4 | CACCCCCA | -0.115
5 | AAAGCACG | 0.0653
6 | CGAAAGGA | -0.177
7 | AAAGCGAG | 0.107
8 | AAGACCTG | -0.155
9 | CTAGCTGA | -0.115
10 | TGCGGGAA | -0.136
11 | AGTTATCC | -0.0296
12 | GAAATTGA | 0.00035
13 | GCTCAACC | -0.147
14 | AAGAGAAA | -0.0614
15 | AGTAAGAA | 0.197
16 | ACGTGTCC | -0.113
17 | CAGCCGTA | -0.0299
18 | ATGGCGAG | -0.15
19 | ACGTACGA | 0.00093
20 | CACGATGA | 0.163
21 | AGCCCGTG | -0.229
22 | AGTATGGA | -0.154
23 | GTTAAAGA | 0.222
24 | AATCAGGC | -0.112
25 | GATTGAGC | 0.00679

Row | Sequence | PBM E-score
26 | ACCCTCCT | -0.286
27 | CAGTAGCA | -0.00876
28 | GGTGCAAA | -0.15
29 | ATACCAGA | -0.0298
30 | ACCAGACG | -0.0525
31 | GGGCCGGA | -0.421
32 | ACGAGGCC | -0.274
33 | AACGGGGG | -0.238
34 | ACTTCCAC | -0.0314
35 | GCTTTCAC | 0.0724
36 | ATGGTGTG | 0.219
37 | CCGAAGCG | -0.227
38 | AAGGGAAA | 0.029
39 | ATCCAACA | 0.177
40 | CCTGTATC | -0.0207
41 | GCCGAGTA | -0.0684
42 | CATACTAG | 0.127
43 | ATGTTGCG | 0.287
44 | AGGTACCA | -0.0442
45 | AGATCAAC | 0.25
46 | ATCTAAGC | -0.0877
47 | ACCGGTGA | -0.193
48 | CACCCCCG | -0.231
49 | AGGTTTTG | -0.0712
50 | CCCACACG | -0.00838

Row | Sequence | PBM E-score
51 | CCATTACG | 0.13
52 | ATCTACCC | -0.0961
53 | GCCCTCCA | -0.218
54 | ACAACTGA | 0.137
55 | ACAACTCT | 0.0945
56 | ACTGTGCG | 0.0676
57 | ACCTCCGA | -0.123
58 | ATTGTGTG | 0.112
59 | AGAGTATC | 0.0367
60 | GGATGGCA | -0.0636
61 | AAGGGACA | -0.101
62 | TACGTATA | 0.327
63 | GGCTTACA | 0.249
64 | GGGGCGAA | -0.241
65 | AACACAAC | 0.409
66 | AAAGCAAT | 0.277
67 | GAAGCTAC | 0.114
68 | AAATACCA | 0.121
69 | TGTCCTAA | 0.0658
70 | GAGCCGGA | -0.186
71 | AGCAAGGG | -0.0619
72 | CTTTGTAA | 0.414
73 | AAAGAACG | 0.0872
74 | AACGTACC | -0.0493
75 | ACCATTCC | -0.177

Row | Sequence | PBM E-score
76 | ACGGACAG | -0.0708
77 | CGTAGGGA | 0.00608
78 | AACTCAGC | 0.0157
79 | CAATGAAA | -0.05
80 | CGTTGGAA | 0.0703
81 | AGTAACCG | 0.0406
82 | CCTCCCCA | -0.233
83 | AACATTGC | 0.191
84 | AAGCAAAC | 0.134
85 | AGGATGGG | -0.239
86 | AAGCTTCT | -0.0885
87 | AGTTTTCA | 0.0311
88 | ATAGTGTA | 0.106
89 | GGGATACC | -0.275
90 | CACAAGAA | 0.24
91 | GATACCAC | -0.0128
92 | ACGAGCTC | -0.045
93 | TGTCTGAA | 0.0998
94 | ACGCGAGT | 0.185
95 | CATAGCAG | -0.0586
96 | GGTCGACA | 0.0251
97 | AGGTCTAG | -0.167
98 | AGATATAG | 0.0882
99 | CTCACGGA | -0.219
100 | ATTGGGAC | -0.202

Row | Sequence | PBM E-score
101 | ACACTGCC | 0.154
102 | ACAGAGGG | -0.11
103 | ATTGTATC | 0.158
104 | CCCCAGGC | -0.353
105 | ATCAACCG | -0.109
106 | ATAATTAT | 0.25
107 | CCTCTACC | -0.22
108 | CTTGTGCC | -0.262
109 | ATAAATGC | -0.0384
110 | ACCTTTCT | 0.0694
111 | GTGAATAA | 0.249
112 | ATGCTTTG | 0.0998
113 | AGACACAA | 0.172
114 | CGTAAAAA | 0.345
115 | AGGACCCT | -0.133
116 | TATGCATA | 0.0713
117 | TGGTTAAA | 0.231
118 | CTCAGAGA | -0.0918
119 | CATTTAGA | -0.0502
120 | ACTTTCCA | -0.0191
121 | GGGATTAC | 0.317
122 | GTCATCCA | 0.0285
123 | ATTCGGCC | -0.0375
124 | ATATCGTG | 0.0753
125 | AATGGCCG | -0.00732

Row | Sequence | PBM E-score
126 | AAGGAACA | 0.27
127 | GAAGTGCC | -0.0963
128 | CGCACATC | -0.0446
129 | CTCTCGTC | -0.203
130 | CCATCAGG | -0.306
131 | TATCACGA | 0.00013
132 | ATATAAGG | 0.00845
133 | CTCGTAAC | 0.117
134 | GTAAGAAC | 0.302
135 | ACAAACCT | 0.116
136 | AATTTCAA | 0.125
137 | GTATGCTA | 0.0741
138 | CACCACAA | 0.036
139 | CCGCTAGG | -0.206
140 | AACCTTCT | -0.233
141 | CGGGCACG | -0.0491
142 | GTAATATA | 0.361
143 | ACTGGGCA | -0.173
144 | ACGTCGCA | -0.0442
145 | GCGCAATA | -0.0339
146 | AGAAGGGC | -0.202
147 | GGCACATA | 0.0277
148 | ATCAGGGG | -0.439
149 | GTGTCCCA | -0.181
150 | AGGTCGAG | 0.0391

Row | Sequence | PBM E-score
151 | CAGCGAAC | -0.1
152 | GGAGGCAA | -0.367
153 | AGAGATAA | 0.0246
154 | CACACACG | 0.279
155 | ATCGGCTG | -0.339
156 | AACGCAGA | 0.187
157 | AGTTTTTC | 0.0615
158 | CGTGGACC | -0.229
159 | CGTTGCCA | 0.0785
160 | ATCGATTC | -0.0308
161 | GGGCTGAA | -0.0472
162 | GACGGTGA | -0.192
163 | CGTAGAGC | 0.095
164 | CCATTCGA | -0.0609
165 | CTTCCCAC | -0.164
166 | GCAACCAA | -0.00712
167 | AGAACTAA | 0.189
168 | GGAACACC | -0.195
169 | TCAACGCA | 0.31
170 | GACCCTCC | -0.282
171 | ATCGACGG | -0.105
172 | GGCTCTAC | -0.0942
